This is one part of the list. Antibody binding of pooled human sera (four to six donors per pool; dilution not stated) to peptides of the Trypanosoma cruzi antigen TSSA on microarrays. Quantile-normalised fluorescence in arbitrary units, mean of duplicate arrays; higher = more binding. No active / inactive call. The uninfected pools are read here as the healthy donors of the same country. The strongest signals lie near the top of the scale (about 60,000).
How the values were obtained:
Experiment in all cases: antibody binding signal (normalised fluorescence) (arbitrary fluorescence units); higher = stronger serum antibody binding to peptide
[1] = tested on: pooled sera of chronic Chagas disease patients, Argentina
Description: (§1)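 Microarray of 15-residue peptides over residues 30-55 of Trypanosoma cruzi TSSAII, each with 1 to 10 substitutions at naturally variable positions, probed with one serum pool per country.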

[2] = tested on: pooled sera of chronic Chagas disease patients, Bolivia
Description: as §1

[3] = tested on: pooled sera of chronic Chagas disease patients, Brazil
Description: as §1

[4] = tested on: pooled sera of chronic Chagas disease patients, Colombia
Description: as §1

[5] = tested on: pooled sera of chronic Chagas disease patients, Mexico
Description: as §1

[6] = tested on: pooled sera of chronic Chagas disease patients, USA
Description: as §1

[7] = tested on: pooled sera of uninfected people, Argentina
Description: as §1

[8] = tested on: pooled sera of uninfected people, Bolivia
Description: as §1

[9] = tested on: pooled sera of uninfected people, Brazil
Description: as §1

[10] = tested on: pooled sera of uninfected people, Colombia
Description: as §1

[11] = tested on: pooled sera of uninfected people, Mexico
Description: as §1

[12] = tested on: pooled sera of uninfected people, USA
Description: as §1

| Sequence | antibody binding signal [1] | antibody binding signal [2] | antibody binding signal [3] | antibody binding signal [4] | antibody binding signal [5] | antibody binding signal [6] | antibody binding signal [7] | antibody binding signal [8] | antibody binding signal [9] | antibody binding signal [10] | antibody binding signal [11] | antibody binding signal [12] |
| --- | --- | --- | --- | --- | --- | --- | --- | --- | --- | --- | --- | --- |
| KDKKPATGGTPSPPG | 296 | 238 | 138 | 447 | 224 | 324 | 153 | 97.7 | 234 | 125 | 82.5 | 96.7 |
| EKKTAAGEAPSQSGA | 617 | 5120 | 4070 | 704 | 558 | 6460 | 178 | 1350 | 137 | 1180 | 249 | 1160 |
| ISTPPSGTEKKPAAG | 49600 | 27800 | 43600 | 834 | 26000 | 11900 | 1290 | 1150 | 447 | 189 | 456 | 1220 |
| KENKTAAGEAPSQSG | 276 | 5030 | 7890 | 1260 | 233 | 6210 | 180 | 136 | 129 | 128 | 169 | 184 |
| TEKKAAAGGAPSQSG | 1780 | 185 | 343 | 6330 | 843 | 1210 | 204 | 139 | 503 | 154 | 203 | 240 |
| SSTPPSGTENKAAAG | 52800 | 48100 | 56000 | 456 | 6470 | 27600 | 3130 | 672 | 445 | 738 | 312 | 706 |
| TEKKPATGEAPSPSG | 46200 | 49800 | 46600 | 370 | 338 | 36800 | 708 | 463 | 462 | 262 | 296 | 587 |
| TEKKTATGEAPSQPG | 16100 | 33900 | 38500 | 406 | 1050 | 21900 | 176 | 181 | 372 | 136 | 284 | 181 |
| KEKKPAAGGAPSQSG | 206 | 175 | 156 | 1400 | 196 | 151 | 117 | 82.4 | 136 | 94.5 | 76.9 | 280 |
| TDKKTATGGAPSQSG | 1630 | 258 | 1250 | 2160 | 919 | 783 | 325 | 205 | 195 | 157 | 338 | 126 |
| TPPSGKDNKPAAGGT | 7750 | 7250 | 21300 | 437 | 38500 | 12500 | 420 | 1220 | 565 | 175 | 254 | 196 |
| SGKENKAAAGETPSP | 4650 | 3240 | 20800 | 8510 | 5830 | 18500 | 8820 | 3460 | 145 | 496 | 573 | 621 |
| KKAAAGEAPSQSGAS | 264 | 9810 | 8000 | 255 | 157 | 7090 | 221 | 162 | 108 | 76.7 | 112 | 227 |
| TPPSGKDKKPAAGEA | 7510 | 3290 | 6690 | 365 | 44500 | 1400 | 552 | 462 | 118 | 262 | 92.8 | 127 |
| TEKKAATGETPSQPG | 5990 | 3640 | 38700 | 401 | 345 | 11700 | 384 | 337 | 346 | 652 | 303 | 329 |
| TISTPPSGTEKKTAT | 35200 | 5920 | 30600 | 417 | 10700 | 4840 | 960 | 324 | 178 | 137 | 148 | 145 |
| TDNKAATGEAPSQPG | 27200 | 41700 | 44400 | 154 | 187 | 29100 | 255 | 248 | 202 | 112 | 105 | 105 |
| KDKKAATGEAPSQSG | 10000 | 11200 | 18800 | 148 | 177 | 17700 | 229 | 81.7 | 101 | 133 | 86 | 90.6 |
| KKPAAGEAPSQSGAS | 226 | 3710 | 10700 | 185 | 145 | 10400 | 243 | 141 | 99 | 93.8 | 92.3 | 261 |
| TPPSGKDKKPATGGA | 4200 | 517 | 3130 | 864 | 41600 | 748 | 353 | 390 | 109 | 192 | 98.1 | 317 |
| PSGTENKAATGGAPS | 48100 | 21800 | 43400 | 3550 | 4010 | 10900 | 1450 | 532 | 555 | 486 | 683 | 305 |
| DNKAATGEAPSPSGA | 26200 | 43200 | 36100 | 119 | 129 | 26800 | 182 | 166 | 212 | 121 | 114 | 130 |
| GTDNKPAAGEAPSPS | 3790 | 2940 | 41400 | 1130 | 222 | 16900 | 145 | 559 | 315 | 109 | 340 | 111 |
| KTATGEAPSPSGASS | 14000 | 24600 | 12300 | 152 | 3400 | 18200 | 279 | 121 | 164 | 96.5 | 103 | 250 |
| DKKAAAGGTPSPSGA | 736 | 186 | 184 | 5330 | 471 | 1570 | 166 | 119 | 1900 | 157 | 99.3 | 186 |

| Sequence | antibody binding signal [1] | antibody binding signal [2] | antibody binding signal [3] | antibody binding signal [4] | antibody binding signal [5] | antibody binding signal [6] | antibody binding signal [7] | antibody binding signal [8] | antibody binding signal [9] | antibody binding signal [10] | antibody binding signal [11] | antibody binding signal [12] |
| --- | --- | --- | --- | --- | --- | --- | --- | --- | --- | --- | --- | --- |
| GKENKPATGGAPSPP | 4240 | 1570 | 5260 | 4950 | 5680 | 11900 | 658 | 858 | 128 | 114 | 141 | 147 |
| GKEKKPAAGGAPSPP | 1620 | 312 | 236 | 2190 | 763 | 1100 | 124 | 103 | 154 | 104 | 98.9 | 267 |
| ENKAAAGGTPSQSGA | 391 | 755 | 419 | 3200 | 307 | 1200 | 234 | 174 | 2000 | 291 | 214 | 161 |
| NKPATGETPSQPGAS | 19300 | 30700 | 42500 | 251 | 248 | 24500 | 603 | 2280 | 880 | 528 | 1550 | 1210 |
| ISTPPSGKEKKTATG | 13300 | 190 | 280 | 397 | 19000 | 799 | 290 | 268 | 104 | 204 | 109 | 126 |
| KKAATGGTPSPSGAS | 358 | 285 | 351 | 558 | 264 | 424 | 234 | 113 | 302 | 405 | 83.3 | 221 |
| TDKKAATGEAPSQPG | 21900 | 35300 | 40800 | 201 | 359 | 23700 | 348 | 79.3 | 376 | 413 | 185 | 141 |
| SGTENKTAAGEAPSP | 34000 | 8850 | 15000 | 357 | 288 | 11600 | 510 | 305 | 207 | 314 | 187 | 176 |
| KDKKTAAGETPSQSG | 187 | 246 | 243 | 214 | 183 | 476 | 107 | 103 | 96 | 244 | 80.7 | 124 |
| GTDKKAAAGEAPSPP | 559 | 328 | 10800 | 2990 | 839 | 12000 | 140 | 264 | 102 | 79.9 | 249 | 151 |
| KDKKPATGGTPSQSG | 369 | 202 | 174 | 413 | 205 | 407 | 221 | 92.1 | 278 | 92.5 | 93.8 | 97.8 |
| GTDKKPATGGTPSPP | 596 | 350 | 1820 | 5920 | 989 | 634 | 254 | 567 | 966 | 215 | 855 | 144 |
| PSGKEKKPAAGETPS | 9750 | 3530 | 10200 | 13300 | 11500 | 7280 | 595 | 583 | 106 | 315 | 95.8 | 251 |
| TEKKAATGGTPSQSG | 1110 | 521 | 839 | 1240 | 1720 | 2000 | 470 | 186 | 791 | 1650 | 268 | 256 |
| GTDNKAATGGAPSPS | 676 | 371 | 31600 | 703 | 669 | 1810 | 282 | 567 | 1690 | 182 | 217 | 120 |
| TENKAATGGTPSQSG | 28000 | 1310 | 519 | 425 | 504 | 281 | 218 | 147 | 541 | 182 | 261 | 209 |
| NKTAAGEAPSPPGAS | 372 | 1070 | 8140 | 359 | 357 | 5160 | 482 | 1020 | 531 | 667 | 194 | 1200 |
| SGKEKKTATGGAPSP | 3790 | 358 | 3540 | 2820 | 3190 | 4310 | 273 | 284 | 99.2 | 102 | 115 | 111 |
| KDKKTAAGETPSPPG | 145 | 182 | 157 | 185 | 179 | 771 | 124 | 103 | 114 | 271 | 77.6 | 222 |
| GKDKKTATGGTPSPP | 490 | 302 | 205 | 1380 | 739 | 1510 | 169 | 82.4 | 110 | 119 | 72.1 | 101 |
| GTENKPAAGETPSPS | 46800 | 3430 | 15600 | 687 | 1730 | 5390 | 364 | 1250 | 291 | 158 | 391 | 1580 |
| TEKKTATGGTPSQSG | 1220 | 441 | 1050 | 4680 | 912 | 2320 | 490 | 142 | 434 | 1110 | 518 | 225 |
| TDKKAAAGGTPSQSG | 1210 | 226 | 218 | 4560 | 426 | 1440 | 207 | 84.4 | 1310 | 153 | 120 | 163 |
| DKKTAAGEAPSQPGA | 5230 | 11400 | 36500 | 380 | 467 | 5650 | 312 | 249 | 160 | 1340 | 682 | 166 |
| ENKAAAGEAPSQPGA | 7800 | 29900 | 44800 | 334 | 232 | 14800 | 137 | 263 | 183 | 138 | 180 | 175 |
